# Test results reported in article PMC4336329 (PLoS ONE, 2015).
# Among all 310,000 compounds or so, about 14,000 (4.5%) showed an effect of 50% or more. The effect is printed as a negative number. The list shows a part of the results.
# Molecular target: human ether-à-go-go-related gene (hERG) potassium channel (human, UniProt Q12809)
# Experiment: primary screen, population patch clamp on CHO cells stably expressing hERG
# 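Further: peak tail current of the secondary pulse compared with the same well before compound.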
# Sequence of human ether-à-go-go-related gene (hERG) potassium channel (Q12809 whole entry, looked up): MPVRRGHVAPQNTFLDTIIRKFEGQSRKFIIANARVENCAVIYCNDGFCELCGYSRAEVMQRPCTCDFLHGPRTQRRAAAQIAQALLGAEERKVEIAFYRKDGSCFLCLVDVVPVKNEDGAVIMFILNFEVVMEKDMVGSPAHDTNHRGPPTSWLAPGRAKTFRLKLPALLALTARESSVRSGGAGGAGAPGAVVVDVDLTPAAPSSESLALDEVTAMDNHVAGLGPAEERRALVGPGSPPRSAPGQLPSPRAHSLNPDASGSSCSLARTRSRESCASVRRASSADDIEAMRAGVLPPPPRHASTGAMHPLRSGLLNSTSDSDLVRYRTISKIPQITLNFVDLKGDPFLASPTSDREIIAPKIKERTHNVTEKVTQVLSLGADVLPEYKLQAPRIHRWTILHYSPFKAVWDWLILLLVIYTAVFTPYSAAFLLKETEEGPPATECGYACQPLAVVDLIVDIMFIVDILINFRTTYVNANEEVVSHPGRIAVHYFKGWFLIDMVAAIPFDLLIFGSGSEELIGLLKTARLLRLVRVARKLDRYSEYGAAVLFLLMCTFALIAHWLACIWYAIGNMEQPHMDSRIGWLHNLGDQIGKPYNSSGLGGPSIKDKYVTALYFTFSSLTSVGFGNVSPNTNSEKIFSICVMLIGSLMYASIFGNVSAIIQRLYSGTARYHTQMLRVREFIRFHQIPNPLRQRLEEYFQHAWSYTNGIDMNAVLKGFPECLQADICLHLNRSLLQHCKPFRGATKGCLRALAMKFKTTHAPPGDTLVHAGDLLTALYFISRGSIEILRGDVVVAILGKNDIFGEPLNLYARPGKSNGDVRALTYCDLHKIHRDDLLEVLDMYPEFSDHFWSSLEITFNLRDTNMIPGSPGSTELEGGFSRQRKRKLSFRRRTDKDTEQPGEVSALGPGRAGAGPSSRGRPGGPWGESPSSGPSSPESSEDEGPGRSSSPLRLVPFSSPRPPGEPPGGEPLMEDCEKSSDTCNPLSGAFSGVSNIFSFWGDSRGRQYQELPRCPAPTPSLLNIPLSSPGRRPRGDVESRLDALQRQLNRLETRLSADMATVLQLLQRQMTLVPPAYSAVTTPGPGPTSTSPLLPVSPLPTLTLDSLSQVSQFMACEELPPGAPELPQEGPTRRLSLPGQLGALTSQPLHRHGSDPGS
row,SMILES,"hERG current change (%, negative = inhibition) at 10uM [%]"
1,O=C(O)c1ccc(-n2nnnc2SCc2ccccc2F)cc1,19.3
2,O=C(OCC(=O)N1CCN(c2ccccc2)CC1)c1ccc(Cl)cc1[N+](=O)[O-],-63.6
3,Cc1nn(CC(=O)NC2CCC(C)CC2)c(C)c1[N+](=O)[O-] (stereo not drawn),-15.9
4,CC(=O)c1cccc(NC(=O)C2C3C=CC(C3)C2C(=O)O)c1 (stereo not drawn),23.1
5,c1ccc(-c2nc3c([nH]2)CCc2nonc2-3)cc1,28.8
6,Cc1ccc(C)c(C(C)NC(=O)C2C3CCC(O3)C2C(=O)O)c1 (stereo not drawn),-6.85
7,CCOC(=O)CCCCC(=O)c1[nH]c(=O)[nH]c1CSc1nnc2c3cc(Br)ccc3n(C)c2n1,20.5
8,N#C/C(=C\c1ccc(-c2ccccc2[N+](=O)[O-])o1)C(=O)Nc1nc(-c2cccs2)cs1,18.1
9,O=C(C1CCC(CNc2c(N3CCCCC3)c(=O)c2=O)CC1)N1CCN(c2ccccn2)CC1 (stereo not drawn),0.00178
10,Cl.OCCNCCOc1ccc(Cl)c(Cl)c1,-6.93
11,O=C(O)C(=O)O.c1ccc(COc2ccc(OCCCN3CCCC3)cc2)cc1,-73.8
12,O=C(NCc1ccco1)c1cc2c(s1)CSC2,-4.05
13,Cc1ccc(C(=O)NCCc2nnc(SCC(=O)Nc3nc(-c4ccccc4)cs3)n2C)cc1,-0.75
14,O=C(O)c1cccc(NS(=O)(=O)c2ccc3c4c(cccc24)C(=O)N3)c1,23
15,CC(C)c1ccccc1NC1=CC(=O)CC(C)(C)C1,4.25
16,O=C(Cc1ccccc1)NCCc1c[nH]c2ccccc12.O=C(O)C(=O)O,16.4
17,CC1(OC(=O)C2CCCC2)C(=O)C=C2C=C(c3ccsc3)N(C3CCCC3)C=C2C1=O (stereo not drawn),-64.7
18,CC1(C)C2C(Cl)(Cl)C2(C)c2ccccc2N1C=O (stereo not drawn),3.5
19,COCCCn1c(=O)/c(=C\c2ccc(OC(F)F)c(OC)c2)s/c1=C(/C#N)C(=O)NCCOC,-4.74
20,COC(=O)c1sc2nc(CN3CCN(c4ccc(OC)cc4)CC3)[nH]c(=O)c2c1C,-0.366
21,CN(C)C(=O)C1CCC(=O)N1Cc1cccs1 (stereo not drawn),9.89
22,c1coc(Cn2c(-c3ccco3)nc3ccccc32)c1,-10

row,SMILES,"hERG current change (%, negative = inhibition) at 10uM [%]"
1,Cc1cccc(N2CSC3=C(C#N)C(c4ccc(C)o4)CC(=O)N3C2)c1 (stereo not drawn),12
2,CC(C)(C)c1ccc(NC(=O)COC(=O)C2CCCC2)cc1,9.41
3,CCN(c1cccc(C)c1)C1C(=O)c2ccccc2N1C(C)=O (stereo not drawn),13.7
4,Cc1cc(=O)oc2cc(OCC(=O)Nc3ccccc3C(=O)O)ccc12,11.6
5,O=C(CSc1nnc(-c2ccoc2)o1)N1CCOCC1,5.01
6,CC(C)(C)NS(=O)(=O)c1ccc(OCC(=O)NCCC2=CCCCC2)cc1,-14.1
7,COC(=O)c1ccccc1NC(=S)N1CCN(c2ccccn2)CC1,-6.65
8,Cc1ccc(N(CC(=O)O)S(C)(=O)=O)cc1Cl,5.49
9,FC(F)(F)c1cccc(-c2cc3ccccc3nc2N2CCCC2)c1,4.9
10,Cc1ccc(NC(=O)c2ccc(F)cc2)cc1S(=O)(=O)N1CCCCCC1,-42.6
11,CCCCn1c(CNC(=O)C23CC4CC(CC(C4)C2)C3)nnc1SC(C)CC (stereo not drawn),-20.4
12,O=C(O)CC(NC(=O)C(F)(F)F)c1ccc2c(c1)OCO2 (stereo not drawn),13.2
13,CCC(C)/C(C)=N/Nc1ccc(S(N)(=O)=O)cc1[N+](=O)[O-] (stereo not drawn),2.03
14,COc1ccccc1CC(=O)NCCN1CCCCC1,-4.44
15,O=C(NCCCN1CCOCC1)c1ccc(Sc2ccc(F)cc2)c([N+](=O)[O-])c1,-33.3
16,COc1ccc(Cl)cc1C(=O)NNC(=S)NC(=O)c1cc(-c2ccc(Cl)cc2)nc2ccccc12,5.05
17,NC(=O)c1ccc(Nc2nnc(-c3ccc(O)cc3)c3ccccc23)cc1,24
18,O=C(CSc1nc2ncccc2[nH]1)NC1CCCCC1,8.56
19,CCOc1ccc(CCNC(=O)CN2C(=O)NC3(CCCCCC3)C2=O)cc1OCC,9.95
20,Cc1cc(C)cc(OCC(=O)Nc2ccccc2C(=O)N2CCOCC2)c1,10.2
21,O=C(CCc1ccncc1)NC1CCCc2c1cnn2-c1cc(F)cc(F)c1 (stereo not drawn),-56.5
22,CCc1ccc(N2CC(C(=O)Nc3ccc(S(=O)(=O)Nc4nccs4)cc3)CC2=O)cc1 (stereo not drawn),18.2

row,SMILES,"hERG current change (%, negative = inhibition) at 10uM [%]"
1,COCC(C)NC(=O)COc1ccc(Cl)cc1Cl (stereo not drawn),5.35
2,COC(=O)C1=C(c2c(C)noc2C)C[C@@H]2CC[C@H]1N2C(=O)N1CCOCC1,8.82
3,COc1ccc(C(CCN(Cc2ccc(OC)c(OC)c2)C(C)=O)c2ccccc2)cc1 (stereo not drawn),-33.9
4,O=C(Nc1cc(-c2nc3ccccc3s2)ccc1Cl)c1ccc2c(c1)OCO2,7.51
5,CNc1cc(NS(=O)(=O)c2ccc(N)cc2)nc(NC)n1.Cl,-61.4
6,CCOCCCNC(=S)N1CCN(Cc2ccc3c(c2)OCO3)CC1.O=C(O)C(=O)O,-7.2
7,CCC(=O)Nc1cccc(NC(=S)NC(=O)c2ccc(C)cc2)c1,-2.66
8,Cc1ccccc1NC(=O)Cc1cn(C)c2ccccc12,15.1
9,Cc1cccc(NS(=O)(=O)c2cccc(C(=O)NCC3(N4CCCCC4)CCCCC3)c2)c1,-89.9
10,COc1ccccc1NS(=O)(=O)c1ccc2c(c1)NC(=O)CC(=O)N2,14.5
11,CC(=O)N(CN1C(=O)C2C3C=CC(C3)C2C1=O)c1cccc(Cl)c1 (stereo not drawn),6.79
12,COc1ccccc1C(=O)Nc1ccc(N2CCN(Cc3ccccc3)CC2)cc1,-0.268
13,CCc1nn(CC(=O)NCCC2=CCCCC2)c(=O)c2cc3cc(F)ccc3n12,15.7
14,COC(=O)c1ccc(CSc2nc3scc(-c4cccs4)c3c(=O)[nH]2)o1,3.45
15,COC(=O)c1ccc(C(=O)N2CCCC(Nc3ccc(C(C)C)cc3)C2)nc1 (stereo not drawn),0.521
16,CN1CCc2nc(SCCOc3ccccc3)c(C#N)cc2C1,-66.3
17,CNC(=O)c1cc(C)c(-c2ccccc2)s1,-18.9
18,COc1cc2nc(Cl)nc(N3CCOCC3)c2cc1OC,-14.4
19,Nc1nonc1-n1nnc(C(=O)N/N=C/C2CCCCC2)c1-c1ccccc1,12.5
20,CC(C)n1c(N)c(C#N)c2ccc([N+](=O)[O-])cc2c1=O,-11.5
21,COc1ccc(OCC(=O)Nc2ccc3c(c2)n(C)c(=O)n3C)cc1,-3.51
22,CC(=O)N1c2ccc(S(=O)(=O)N(C)CC(=O)NC3CCCC3)cc2CC1C (stereo not drawn),-23.1

row,SMILES,"hERG current change (%, negative = inhibition) at 10uM [%]"
1,COc1ccccc1C(=O)NCCC(=O)N1CCN(S(=O)(=O)c2cccc(Cl)c2)CC1,-31.2
2,CC1CCCN(c2ccc(F)cc2N)C1.Cl (stereo not drawn),11.2
3,CC1(C)CC(=O)c2cc(OCC(=O)O)ccc2O1,0.158
4,COC(=O)Nc1ccc(S(=O)(=O)N2CCCC(C(=O)Nc3cccnc3)C2)cc1 (stereo not drawn),-1.19
5,CCN(CC)C(=O)c1ccc(NC(=O)COc2ccccc2F)cc1,-9.29
6,CC(=O)Nc1ccc(OS(=O)(=O)c2ccc(C(C)(C)C)cc2)cc1,14.7
7,Cn1c(=O)c2c(nc(Sc3n[nH]c(N)n3)n2Cc2ccccc2Cl)n(C)c1=O,11.9
8,Cc1nc2c3ccccc3nc(NNC(=O)CCC(=O)N3CCN(c4ccccc4F)CC3)n2n1,-40.3
9,O=C(N/N=C/C1CC=CCC1)c1ccc(O)cc1O (stereo not drawn),11.8
10,COc1ccc(C(=O)Nc2ccc(O)c3c(=O)cc(-c4cccc(Cl)c4)oc23)cc1,-4.16
11,O=C(O)CNC(=O)c1ccccc1NC(=O)c1ccco1,7.93
12,CC(C)(C)OC(=O)NCCCC[C@H](NC(=O)c1nc[nH]c1C(=O)NCC(=O)OCc1ccccc1)C(=O)OC(C)(C)C,-14.1
13,Cc1ccc(-n2nnc(-c3ccnc4ccccc34)n2)cc1,0.34
14,C=CCN(CC=C)S(=O)(=O)c1ccc(NC(=S)NC(=O)c2ccc(-c3ccccc3)cc2)cc1,5.95
15,C=CCN(C(=O)c1csnn1)C(C(=O)NC1CCCCC1)c1ccc(C)cc1 (stereo not drawn),-6.69
16,Cn1nnnc1SCc1ccc(C(=O)Nc2ccc(Br)cc2)cc1,16.7
17,COC(=O)N/N=C(\C)c1ccc(OC(F)F)cc1,9.93
18,COCCn1c(=O)[nH]c2cc(C(=O)N3CCN(c4cccc(C(F)(F)F)c4)CC3)ccc2c1=O,7.67
19,CC(CCc1ccccc1)NC(=O)CCNS(=O)(=O)c1ccccc1 (stereo not drawn),0.271
20,O=C(NCc1ccccc1)c1nc(-c2cccs2)no1,-22.2
21,CCn1c(=O)c([N+](=O)[O-])c(NCCCn2ccnc2)c2ccccc21,10.3
